Measured values reported in the RNAGym collection of RNA variant scans (doi:10.1093/nar/gkz1192).
The source gives no read counts; variants with many changes may rest on few reads.

B1: CPEB3 Ribozyme (parent)
chain: UAACAGGGGGCCACAGCAGAAGCGUUCACGUCGCAGCCCCUGUCAGAUUCUGGUGAAUCUGCGAAUUCUGCUGUAUAUCUC

Variants of: B1
Assay: self-cleavage, relative activity (ratio to wild type); higher = more cleavage; in vitro, sequencing
Summary of the method: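 Relative activity was defined as the cleaved/total read fraction for a variant divided by the same fraction for the unmutated ribozyme. CPEB3 self-cleaving ribozyme libraries were made by rounds of error-prone PCR, barcoded, and transcribed in vitro with T7 RNA polymerase for 5 hours at 37°C, and cleavage ran through transcription plus a 15 min DNase I step before EDTA. Illumina sequencing of template-switched reverse transcripts gave the reads, and DNA sequencing mapped the barcodes. Averages come from three batches, using variants with at least 5 reads.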

Row | Variant | self-cleavage
1 | UAACAGGAGGCCACAGCAGAAGCGUUCACGUCGCGGCCCCUGCCAGAUUCUGGUGAAUAUGCGAAUUCCGCUGUAUAUCUC [G8A A35G U43C C59A U69C] | 0.06
2 | UAACAGGAGGCCACAGCAGAAGCGUUCGCGUCGCAGCCCCUGUCAGAUUCUGGUGAAUCUGCGAAUUCUGCUGUAUAUCCC [G8A A28G U80C] | 0.21
3 | UAACAGGAGGCCACAGCAGAAGCGUUCACGUCGCAGCCCCUGUCGGAUUCUGGUGAAUCUGCGAAUUCCGCUGUAUAUCUC [G8A A45G U69C] | 0.2
4 | UAACAGGAGGCCACAGCAGAAGCGUUCGCGUCGCAGCCCCUGUCAGAUUCUGGUGAGUCUGCGAAUUCUGCCGUAUAUCUC [G8A A28G A57G U72C] | 0.05
5 | UAACAGGAGGCCACAGCAGAAGCGUUCUCGUCGCAGCCCCUGUCAGAUUCUGGUGGAUCUGCGAAUUCAGCUGUAUAUCUC [G8A A28U A56G U69A] | 0.05
6 | UAACAGGAGGCCACAGCAGAAGCGUUCACGUCGCUGCCCCUGUCAGAUUCUGGCGAAUCUGCGAAUUCUGCUGUAUAUCUC [G8A A35U U54C] | 0.17
7 | UAACAGGAGGCCACAGCAGAAGCGUUCUCGUCGCAGCCCCUGUCAGAUUCUGGCGAAUCUGCGAAUUCUGCCGUAUAUCUC [G8A A28U U54C U72C] | 0.06
8 | UAACAGGAGGCCACAGCGGAAGCGUUCACGACGCAGCCCCUGUCAGAUUCCGGUGAAUCUGCGAAUCCUGCCGUAUAUCUC [G8A A18G U31A U51C U67C U72C] | 0.05
9 | UAACAGGAGGCCACAGCAGAAGCGUUCGCGUCGCGGCCCCUGUCAUAUUCUGGUGAACCUGCGAAUUCUGCUGUAUAUCUC [G8A A28G A35G G46U U58C] | 0.06
10 | UAACAGGAGGCCACAGCAGUAGCGUUCACGUCCCAGCCCCUGUCAGAUUCUGGUGAAUCUGCGAAUUCUGCCGUAUAUCUC [G8A A20U G33C U72C] | 0.05
11 | UAACAGGAGGCCACAGCAGAAGCGUUCUCGUCGCAGCCCCUGUCAGAUUCUGGUGAAUCCGCGAAUUCUGCUGUAUAUCUC [G8A A28U U60C] | 0.06
12 | UAACAGGAGGCCACAGCAGAGGCGUUCACGUCGCAGCCCCUGCCAGAUUCUGGUGAAUCUGCGAAUCCUGCUGUAUAUCCC [G8A A21G U43C U67C U80C] | 0.13
13 | UAACAGGAGGCCACAGCAGAAGCGUUCGCGUCUCAGCCCCUGUCGGAUUCUGGUGAAUCAGCGAAUUCUGCUGUAUAUCUC [G8A A28G G33U A45G U60A] | 0.05
14 | UAACAGGAGGCCACAGCAGGAGCGCUCACGUCGCAGCCCCUGUCAGAUUCUGGUGAAUCUGCGAAUUCUGCUGCAUAUCUC [G8A A20G U25C U74C] | 0.46
15 | UAACAGGAGGCCACAGCAGGAGCGUUCACGUCGCAGCCCCUGUCUGAUUCUGGUGAAUCUGCGAGUUCUGCUGUAUAUCUC [G8A A20G A45U A65G] | 0.05
16 | UAACAGGAGGCCACAGCAGAAGCGUUCGCGUCGCAGAGCCUGUCAGAUUCUGGUGAAUCUGCGAAUUCUGCUGUAUAUCUC [G8A A28G C37A C38G] | 0.23
17 | UAACAGGAGGCCACAGCAGUAGCGUUCACGUCGCAGCCCCUGUCAGACUCAGGUGAAUCUGCGAAUUCUGCUGUAUAUCUC [G8A A20U U48C U51A] | 0.16

Row | Variant | self-cleavage
18 | UAACAGGAGGCCACAGCAGAAGCGUUCACGUCGCAGCCCCUGUCAGUUUCCGGUGAACCCGCGAAUUCUGCCGUAUAUCUC [G8A A47U U51C U58C U60C U72C] | 0.09
19 | UAACAGGAGGCCACAGCAGGAGCGUUCACGUCGCGGCCCCUGUCAGAUUCUGGUGAACCUGCGCAUACUGCUGUAUAUCAC [G8A A20G A35G U58C A64C U67A U80A] | 0.06
20 | UAACAGGAGGCCACAGCAGAGGUGUUCACGUCGCAGCCCCCGUCAGAUUCUGGUGAAUCUGCGAUUUCAGCUAUAUAUCUC [G8A A21G C23U U41C A65U U69A G73A] | 0.08
21 | UAACAGGAGGCCACAGCAGAAGCGUUCACGUCGCUGCACCUGUCGGAUUCUGGUGAACCUGCGAAUUCUGCAGUAUAUCCC [G8A A35U C38A A45G U58C U72A U80C] | 0.03
22 | UAACAGGAGGCCACAGCAGAGGCGUUCACGUCGCAGCCCCUGUCAGAUUCCGGUGAAUCCGCGAAUUCUGCUGUAUAUCUC [G8A A21G U51C U60C] | 0.14
23 | UAACAGGAGGCCACAGCAGUAGCGUUCACGUCGCAGCCCCUUUCAGAUUCUGGUGAAUCCGCGAAUACUGCUGUAUAUCUC [G8A A20U G42U U60C U67A] | 0.05
24 | UAACAGGAGGCCACAGCAGAGGCGUUCACGUCGCAGCCCCUGUCAGAUUCUGGUGGGUCUGCGAAUUCUGCCGUAUAUCUC [G8A A21G A56G A57G U72C] | 0.05
25 | UAACAGGAGGCCACAGCAGAAGCGUUCGCGUCGCAGCCCCUGCCAGAUUCUGGUGAUUCUGCGAAUUCUGCUGUAUAUCGC [G8A A28G U43C A57U U80G] | 0.04
26 | UAACAGGAGGCCACAGCAGUAGCGUUCACGUCGCAGCCCCCGUCAGAUUCUUGUGAAUCUGCGAAUUCUGCUGUAUAUCUC [G8A A20U U41C G52U] | 0.06
27 | UAACAGGAGGCCACAGCAGAAGCGUUCACGUCGCAGCCCCUGUCGGAUUCUGGAGAAUCUGCGAGUUCUGCUGUAUAUCUC [G8A A45G U54A A65G] | 0.24
28 | UAACAGGAGGCCACAGCAGGAGCGUUCACGUCGCGGCCCCUGUCGGAUUCUGGUGAAUCUGCUGAUUCUGCUGUACAUCUC [G8A A20G A35G A45G G63U A64G U76C] | 0.09
29 | UAACAGGAGGCCACAGCAGAAGCGUUCGCGCCGCAGCCCCUGUCAGAUUCUGGUGAAUCUGCGAAUUCUGCUGUAUAUCUC [G8A A28G U31C] | 0.17
30 | UAACAGGAGGCCACAGCAGAAGCGUUCACGUCGCAGCCCCUGUCGGAUUCUGGUGAAUCUGCGAACUCUGCUGUAUAUCUC [G8A A45G U66C] | 0.21
31 | UAACAGGAGGCCACAGCAGAAGCGUUCUCGUCGCUGCUCCUGUCAGAUUCUGGUGAAUCUGCGAAUCCUGCUGUAUUUCUC [G8A A28U A35U C38U U67C A77U] | 0.12
32 | UAACAGGAGGCCACAGCAGAAGCGUUCGCGUCGCGGCCCCUGUCAGAUUCUGGUGAAUCUGCGAAUUCUGCUGUAUAUUUC [G8A A28G A35G C79U] | 0.11
33 | UAACAGGAGGCCACAGCAGAAGCGUUCACGUCGCUGCCCCUGUCAGAUUCUGGUGAAUCUGCGUAUUUAGCAGUAUAUCUC [G8A A35U A64U C68U U69A U72A] | 0.04
34 | UAACAGGAGGCCACAGCAGAAGCGUUCACGUCGCAGCCCCUGUCUGAUUCUGGCGAAUCUGCGAAUUCUGCUGCAUAUCUC [G8A A45U U54C U74C] | 0.22
